Our source for the amyloid nucleation score values is the supplement of paper PMC12067230.

Single values of this set are uncertain.
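Further: [psi-pin-] Saccharomyces cerevisiae expressing SupN fusions, induced by 100 µM Cu2SO4, selected 7 d at 30 °C without adenine and uracil, scored by deep sequencing of output versus input.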

The first series is described as follows: amyloid nucleation score relative to library mode (yeast Sup35 reporter selection) (log enrichment difference); higher = more amyloid nucleation; sequences are the first 22 residues of the Bri2 peptide extended by up to 12 random residues. As to conditions: random library (experiment): 1;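 active = nucleation score significantly above 0 at FDR 0.05; inactive = not significantly above 0 or absent from output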.
In turn, EASNCFAIRHFENKFAVETLICPCS showed an amyloid nucleation score of 1.01. Take EASNCFAIRHFENKFAVETLICPCSLGLFCETLY: the amyloid nucleation score is 4.8. On the same count and under the same terms, with EASNCFAIRHFENKFAVETLICPCVFQWRVIR the figure was 5.77; with EASNCFAIRHFENKFAVETLICPCVRPTAWDRSQ, 8.05. The same measure, in the same setting: with EASNCFAIRHFENKFAVETLICPD the entry was “inactive”; with EASNCFAIRHFENKFAVETLICPDALDEKRDRMG, “inactive”.

With EASNCFAIRHFENKFAVETLICPDAVRGGRCRVS, the amyloid nucleation score was 0.165. On the same count and under the same terms, with EASNCFAIRHFENKFAVETLICPDGR the entry was “inactive”; with EASNCFAIRHFENKFAVETLICPDILGCQVVWSA, “inactive”; with EASNCFAIRHFENKFAVETLICPDNTVRRPWVLG, “inactive”. The same measure, in the same setting: with EASNCFAIRHFENKFAVETLICPDVARRPWGFFG the entry was “inactive”. Turning to EASNCFAIRHFENKFAVETLICPDWMHLRFETRV, the amyloid nucleation score entry is “inactive”. For EASNCFAIRHFENKFAVETLICPEAMSMFGGCEE, the amyloid nucleation score result is “inactive”. For the sequence EASNCFAIRHFENKFAVETLICPECGPCGFYDGG, the amyloid nucleation score entry is “inactive”. Take EASNCFAIRHFENKFAVETLICPEGPTSRAKGQR: the amyloid nucleation score entry is “inactive”. The same measure, in the same setting: for EASNCFAIRHFENKFAVETLICPEGQYR the value was “inactive”; for EASNCFAIRHFENKFAVETLICPEHGRWMGRKLL, “inactive”; for EASNCFAIRHFENKFAVETLICPELRY, -0.822. Sequence EASNCFAIRHFENKFAVETLICPETWVDIEATCR registered an amyloid nucleation score of -0.0935. The same measure, in the same setting: for EASNCFAIRHFENKFAVETLICPEWPLVGAGCWS the value was “inactive”. On to EASNCFAIRHFENKFAVETLICPFARHAMMRLSM, for which the amyloid nucleation score entry is “inactive”. Sequence EASNCFAIRHFENKFAVETLICPFKTVRLSPGAN came in with an amyloid nucleation score of -0.463. For the sequence EASNCFAIRHFENKFAVETLICPFLVVNLSCIDC, the amyloid nucleation score amounted to 5.75. On the same count and under the same terms, for EASNCFAIRHFENKFAVETLICPFMFYICSDVPS the value was 5.97; for EASNCFAIRHFENKFAVETLICPFNKGRYMAFAS, “inactive”. The same measure, in the same setting: for EASNCFAIRHFENKFAVETLICPFNSSYNSWGCH the value was 7.73; for EASNCFAIRHFENKFAVETLICPFTASRRAQGQD, 1.88; for EASNCFAIRHFENKFAVETLICPFTGSISSKESG, 0.218. As for EASNCFAIRHFENKFAVETLICPFTHCSSFEECS, the amyloid nucleation score came to 2.45. Sequence EASNCFAIRHFENKFAVETLICPFWSKTVMISVY registered an amyloid nucleation score of 1.76.

Consider EASNCFAIRHFENKFAVETLICPGDDGKTSMVRG, for which the amyloid nucleation score was -0.129. Regarding EASNCFAIRHFENKFAVETLICPGDIDVRRLSDW, the amyloid nucleation score result was “inactive”. Consider EASNCFAIRHFENKFAVETLICPGDSLTWVRVVG, for which the amyloid nucleation score result was “inactive”. For EASNCFAIRHFENKFAVETLICPGE, the amyloid nucleation score is -0.102. On to EASNCFAIRHFENKFAVETLICPGELSLQQRGAV, for which the amyloid nucleation score entry is “inactive”.

On to EASNCFAIRHFENKFAVETLICPGESLNQGMFMA, for which the amyloid nucleation score entry was “inactive”. Take EASNCFAIRHFENKFAVETLICPGKEGLRMLSGT: the amyloid nucleation score entry was “inactive”.

As to EASNCFAIRHFENKFAVETLICPGLGTYGTCRRW, the amyloid nucleation score result is “inactive”. In the case of EASNCFAIRHFENKFAVETLICPGLLASNNEEKS, the amyloid nucleation score entry was “inactive”. For EASNCFAIRHFENKFAVETLICPGLYSLGAGRTK, the amyloid nucleation score entry was “inactive”. For the sequence EASNCFAIRHFENKFAVETLICPGTDFNPSWLWS, the amyloid nucleation score entry is “inactive”.

Consider EASNCFAIRHFENKFAVETLICPHAVVVVVIRKE, for which the amyloid nucleation score was determined as 4.5. For EASNCFAIRHFENKFAVETLICPHCVRFRSDPVN, the amyloid nucleation score amounted to 0.618.

With EASNCFAIRHFENKFAVETLICPHDPSKRNMNAA, the amyloid nucleation score result was “inactive”. Same read-out and setting: with EASNCFAIRHFENKFAVETLICPHEVDVDLFYDE the figure was 4.19.

The same series, now with this note: random library (experiment): 2.
Sequence EASNCFAIRHFENKFAVETLICPCNLICGVNLGV had an amyloid nucleation score of 8.37. Turning to EASNCFAIRHFENKFAVETLICPCVSNFSLKLCL, the amyloid nucleation score stood at 5.19. On to EASNCFAIRHFENKFAVETLICPCWYVVYFLW, for which the amyloid nucleation score entry was “inactive”. With EASNCFAIRHFENKFAVETLICPCYMYFVSRW, the amyloid nucleation score entry is “inactive”. For the sequence EASNCFAIRHFENKFAVETLICPDDVMIFLRYAR, the amyloid nucleation score entry was “inactive”. For the sequence EASNCFAIRHFENKFAVETLICPDFFYPCVLDWG, the amyloid nucleation score entry was “inactive”.

For EASNCFAIRHFENKFAVETLICPDLLDNCYLLLI, the amyloid nucleation score is -0.668. In turn, EASNCFAIRHFENKFAVETLICPDNITMVGNDTC came in with an amyloid nucleation score of 0.

On to EASNCFAIRHFENKFAVETLICPDRISQLFFFPS, for which the amyloid nucleation score result was “inactive”. On to EASNCFAIRHFENKFAVETLICPDRKIWFCSLGR, for which the amyloid nucleation score entry is “inactive”.

Turning to EASNCFAIRHFENKFAVETLICPDTHVYH, the amyloid nucleation score was determined as 0.528. With EASNCFAIRHFENKFAVETLICPDVAVRSCVALG, the amyloid nucleation score entry is “inactive”. In the case of EASNCFAIRHFENKFAVETLICPEKIN, the amyloid nucleation score result is “inactive”. Still for that read-out and setting: with EASNCFAIRHFENKFAVETLICPELYSVHSWWFD the entry was “inactive”. On the same count and under the same terms, for EASNCFAIRHFENKFAVETLICPESRERVVTGLG the value was “inactive”; for EASNCFAIRHFENKFAVETLICPF, “inactive”; for EASNCFAIRHFENKFAVETLICPFEYINHMSWRA, -0.419. Still for that read-out and setting: with EASNCFAIRHFENKFAVETLICPFI the entry was “inactive”; with EASNCFAIRHFENKFAVETLICPFSIVDDGTWLV, 2.7; with EASNCFAIRHFENKFAVETLICPFYLCPL, 4.03. Regarding EASNCFAIRHFENKFAVETLICPGDFTTKEVTIE, the amyloid nucleation score result is “inactive”. The same measure, in the same setting: with EASNCFAIRHFENKFAVETLICPGF the figure was 0.416.

Take EASNCFAIRHFENKFAVETLICPGLC: the amyloid nucleation score result was “inactive”. As for EASNCFAIRHFENKFAVETLICPGMSVTDHMASG, the amyloid nucleation score was -0.293. Same read-out and setting: for EASNCFAIRHFENKFAVETLICPGNP the value was “inactive”. Consider EASNCFAIRHFENKFAVETLICPGRVF, for which the amyloid nucleation score entry was “inactive”. Still for that read-out and setting: with EASNCFAIRHFENKFAVETLICPGTKGWTPTWFT the figure was 4.08. For the sequence EASNCFAIRHFENKFAVETLICPGVLMMRSIPGC, the amyloid nucleation score was 4.7. In the case of EASNCFAIRHFENKFAVETLICPGYRLSDSIKWE, the amyloid nucleation score result is “inactive”.

The series is the same for the next values; noted with them: random library (experiment): 3.
In the case of EASNCFAIRHFENKFAVETLICPCNSQVRLWL, the amyloid nucleation score is 0.419. EASNCFAIRHFENKFAVETLICPCRCGFSCTADG yielded an amyloid nucleation score of 7.2. As to EASNCFAIRHFENKFAVETLICPCRMELWKVPGW, the amyloid nucleation score entry is “inactive”.

In the case of EASNCFAIRHFENKFAVETLICPCSLVWHCDFAA, the amyloid nucleation score came to 7.55. EASNCFAIRHFENKFAVETLICPDETGSRVGCSG: the amyloid nucleation score result was “inactive”. Same read-out and setting: for EASNCFAIRHFENKFAVETLICPDFVADMICVI the value was “inactive”. The same measure, in the same setting: with EASNCFAIRHFENKFAVETLICPDRERG the entry was “inactive”; with EASNCFAIRHFENKFAVETLICPDSLGPCFGNDG, “inactive”; with EASNCFAIRHFENKFAVETLICPDSLSGSIGYRV, “inactive”. With EASNCFAIRHFENKFAVETLICPEASQPLSLLTG, the amyloid nucleation score entry was “inactive”. For EASNCFAIRHFENKFAVETLICPECRSLSGGLDQ, the amyloid nucleation score entry is “inactive”. Consider EASNCFAIRHFENKFAVETLICPEELW, for which the amyloid nucleation score entry is “inactive”. Consider EASNCFAIRHFENKFAVETLICPEKVSRRVCGNW, for which the amyloid nucleation score entry is “inactive”. With EASNCFAIRHFENKFAVETLICPERYANSIVIKR, the amyloid nucleation score result is “inactive”. The same measure, in the same setting: for EASNCFAIRHFENKFAVETLICPEVGHKKEQDLC the value was “inactive”; for EASNCFAIRHFENKFAVETLICPEVGKMALAHGG, “inactive”; for EASNCFAIRHFENKFAVETLICPFHPLEEFVDAP, “inactive”.

Turning to EASNCFAIRHFENKFAVETLICPFLGTKIRRMPL, the amyloid nucleation score entry was “inactive”.

EASNCFAIRHFENKFAVETLICPFLSGLSWMTMM displayed an amyloid nucleation score of 0.238. Still for that read-out and setting: with EASNCFAIRHFENKFAVETLICPFVTGTLEYWHC the figure was 7.28; with EASNCFAIRHFENKFAVETLICPFYYHWTVRSYR, “inactive”; with EASNCFAIRHFENKFAVETLICPGDTCNLNWTPL, “inactive”. Turning to EASNCFAIRHFENKFAVETLICPGKETDGEGRLL, the amyloid nucleation score result was “inactive”. The same measure, in the same setting: with EASNCFAIRHFENKFAVETLICPGPAGSSSGRGE the entry was “inactive”; with EASNCFAIRHFENKFAVETLICPGRTQIRMQPFM, “inactive”; with EASNCFAIRHFENKFAVETLICPGSFVHAFVRFR, “inactive”. EASNCFAIRHFENKFAVETLICPGTDRSGTIEGW: the amyloid nucleation score result was “inactive”. On to EASNCFAIRHFENKFAVETLICPGWKRMKSVRGA, for which the amyloid nucleation score result was “inactive”. Take EASNCFAIRHFENKFAVETLICPHDVHIQGKA: the amyloid nucleation score entry is “inactive”.
